Results as given in PubChem BioAssay (NCI).
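Interpolation was linear, between the two tested concentrations surrounding the appropriate level; five concentrations were tested over 48 hours in 96-well plates. At the GI50, growth is halved. Definition used: TGI = concentration required for complete inhibition of growth.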

System: NCI-H322M lung
Experiment: DTP human tumour cell line panel, 48 h

CC1=C2C(=O)[C@](C)(CO)C=C2C(=O)[C@](C)(O)C12CC2
GI50: 2.82 µM | TGI: 10.6 µM

CCC(C)[C@H]1OC(=O)[C@H](C(C)C)N(C)C(=O)[C@@H](C(C)C)OC(=O)[C@H](C(C)C)N(C)C(=O)[C@@H](C(C)CC)OC(=O)[C@H](C(C)C)N(C)C1=O (stereo not given in full)
GI50: 0.541 µM | TGI: 3.52 µM

C=C(C)C(=O)O[C@H]1C[C@@]2(C)OC(=CC2=O)/C(C)=C\[C@H]2OC(=O)C(=C)[C@H]12
GI50: 12.8 µM | TGI: > 33.2 µM

CNC(=O)c1cc(-n2ccc3cc(NC(=O)Nc4ccc(N5CCOCC5)c(C(F)(F)F)c4)ccc32)ccn1
GI50: 8.16 µM | TGI: > 33.3 µM

CCn1c2ccc(/C=N/OCCCN(C)C)cc2c2cc(/C=N/OCCCN(C)C)ccc21
GI50: 2.59 µM | TGI: 9.57 µM
